The whole screen tested about 46,000 compounds, of which about 60 (0.1%) were called active. Not shown: some 3% with an inconclusive outcome. Calls come from the whole dose curve; as a rule, active = well fitted inhibition curve with a large enough effect; inconclusive = small, poorly fitted or top-dose-only effect; inactive = no such curve, though single readings can be large or run the other way. The list shows a part of the results.

A short description of this test: Primary qHTS assay for Inhibitors of ovarian cancer metastasis using an organotypic tumor microenvironment (TME) model.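 For activity change, negative = inhibition: plate controls were DMSO wells for no effect and tomatine positive control wells for full effect.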 Note: nearly all actives have a fitted effect of over 65% in size. The following applies: SKOV3ip1-GFP adhesion/invasion on 3D omental model, fluorescence; series mostly up to 45.8 µM; activity change, negative = inhibition: at the top concentration. The essentials: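 Primary human omental fibroblast/mesothelial 3D culture pre-formed 48 h. SKOV3ip1-GFP cells added with compounds (0.36-46 umol/L), incubated 2 h RT/16 h 37 C, fixed; GFP cells quantified at 488/509 nm.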
On the technique in general: Quantitative high-throughput screening tests each substance at several concentrations.
For the compound `CCc1cc2c(cc3c(=O)n(CC(=O)N4CCN(c5cccc(C)c5C)CC4)nc(CC)n32)s1`, the compound was called inactive.

As to `CCOc1ccc(CC(=O)NCc2ccc3c(c2)CCN3C(=O)c2ccccc2)cc1OCC`, the “activity change, negative = inhibition” value is inactive: 1.4%.

As to `COc1ccc(NC(=O)CC2C(=O)N(c3cccc(OC)c3)C(=O)N2CCC2=CCCCC2)cc1` (stereo unspecified), the “activity change, negative = inhibition” value was inactive: 1.88%.

Turning to `O=C(NCc1ccc(F)cc1)C(=O)Nc1ccc2nc3n(c(=O)c2c1)CCCCC3`, the “activity change, negative = inhibition” value is inactive: 0.276%.

Take `CCn1nnc2cc(C(=O)Nc3cc(C)ccc3C)ccc21`: the compound was classed as inactive.

`Cc1ccc(-c2cc3ncc4c(n3n2)-c2cc(Cl)ccc2OC4)cc1`: the result was inactive.

For the compound `COc1ccc(NC(=O)CCNS(=O)(=O)c2ccc3c(c2)CCCC(=O)N3)cc1`, the “activity change, negative = inhibition” value is inactive: -4.22%.

As for `COc1ccc(NC(=O)c2c(NC(=O)COc3ccccc3)sc3c2CCCCC3)cc1`, the “activity change, negative = inhibition” value is inactive: 0.399%.

Consider `Cc1ccccc1CNC(=O)CCC(=O)N1CCSc2ccccc21`, for which the “activity change, negative = inhibition” value is inactive: 1.47%.

Take `CCOc1ccccc1CNS(=O)(=O)c1cc2c(cc1C)NC(=O)CO2`: the “activity change, negative = inhibition” value is inactive: -0.0437%.

Take `O=C(Cn1cc(S(=O)(=O)Cc2ccccc2Cl)c2ccccc21)NCCc1ccccc1`: the “activity change, negative = inhibition” value is inactive: -22.2%.

As for `Cc1cc(C)c(NC(=O)c2oc3c(c2C)-c2[nH]ncc2CC3)c(C)c1`, the “activity change, negative = inhibition” value is inactive: -4.5%.

Turning to `Cc1cccc(CN2CCN(CC(=O)NCCc3ccc(Cl)cc3)C2=O)c1`, the “activity change, negative = inhibition” value is inactive: -14.8%.

In the case of `O=C(NCc1ccc(Cl)cc1)C1CCC(CNS(=O)(=O)c2ccccc2)CC1` (stereo unspecified), the “activity change, negative = inhibition” value was inactive: -0.858%.

For the compound `CCN(CC)c1nn2c(=O)c(C(=O)NCCc3ccccc3C)cnc2s1`, the result was inactive.

`CCOc1ccc(N(C)C(=O)C2CCN(S(=O)(=O)c3c(C)noc3/C=C/c3ccc(C)cc3)CC2)cc1`: the call was inactive.

On to `O=C(Nc1ccc(N2CCN(c3ccc(F)cc3)CC2)c(C(=O)O)c1)c1cccs1`, for which the “activity change, negative = inhibition” value is inactive: 1.25%.

As to `CCOc1cc2c(cc1OCC)C(CC(=O)O)N(C(=O)Nc1ccc(Br)c(C)c1)CC2` (stereo unspecified), the “activity change, negative = inhibition” value is inactive: 0.366%.

For `CCCCOc1ccc(C(=O)NCCc2sc3nc(-c4ccc(OC)cc4)nn3c2C)cc1`, the “activity change, negative = inhibition” value is inactive: 36.2%.

On to `CCCCOc1ccc(C(=O)NCc2cn3cccc(C)c3n2)cc1`, for which the “activity change, negative = inhibition” value is inactive: 0.334%.

As for `Cc1ccc(C(=O)Nc2ccc(C(=O)O)cc2)cc1S(=O)(=O)N1CCC(C)CC1`, the “activity change, negative = inhibition” value is inactive: -9.29%.

As to `Cc1cccc(-c2nc3scc(CCNS(=O)(=O)c4ccc(F)c(C(F)(F)F)c4)n3n2)c1`, the compound was called inactive.

For the compound `COc1ccc(Cl)cc1NC(=O)CSc1nc2c(oc3ccccc32)c(=O)n1Cc1ccco1`, the result was inactive.

On to `Fc1ccccc1N1CCN(c2ncnc3onc(-c4ccc(Cl)cc4)c23)CC1`, for which the result was inactive.

For `CCOC(=O)c1ccccc1NC(=O)CN1C(=O)CC(c2ccccc2)Sc2ccccc21` (stereo unspecified), the compound was classed as inactive.

As for `Cc1c(C(=O)Nc2ccc(F)c(Cl)c2)sc2nc3n(c(=O)c12)CCC3`, the “activity change, negative = inhibition” value was inactive: -0.143%.

Source of the values: PubChem BioAssay AID1963576 (National Center for Advancing Translational Sciences (NCATS), 2024).
